Results published in the supplement of paper PMC8728848.
This is one part of the list.

Assays:
Assay in all cases: glycan array binding signal (z-score within array); higher = stronger binding
Settings in all cases: glycan notation: IUPAC condensed, linker removed
[1] = target: Neu5Ac(a2-3)Gal(b1-3)GalNAc6S
In short: (§1)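 The binding signal is a Z-score computed within each array and averaged over linkers. Arrays of the same protein sequence at different concentrations or buffers were also averaged together. Data originate from 3228 arrays in the Consortium for Functional Glycomics database, kept only where the protein sequence was available.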

[2] = target: Neu5Ac(a2-3)Gal(b1-3)GlcNAc
In short: as §1

[3] = target: Neu5Ac(a2-3)Gal(b1-3)GlcNAc(b1-3)Gal(b1-3)GlcNAc
In short: as §1

[4] = target: Neu5Ac(a2-3)Gal(b1-3)GlcNAc(b1-3)Gal(b1-4)GlcNAc
In short: as §1

[5] = target: Neu5Ac(a2-3)Gal(b1-3)GlcNAc(b1-3)GalNAc
In short: as §1

[6] = target: Neu5Ac(a2-3)Gal(b1-3)GlcNAc6S
In short: as §1

[7] = target: Neu5Ac(a2-3)Gal(b1-3)[Fuc(a1-4)]GlcNAc
In short: as §1

[8] = target: Neu5Ac(a2-3)Gal(b1-3)[Fuc(a1-4)]GlcNAc(b1-3)Gal(b1-3)[Fuc(a1-4)]GlcNAc
In short: as §1

[9] = target: Neu5Ac(a2-3)Gal(b1-3)[Fuc(a1-4)]GlcNAc(b1-3)Gal(b1-4)[Fuc(a1-3)]GlcNAc
In short: as §1

[10] = target: Neu5Ac(a2-3)Gal(b1-3)[Neu5Ac(a2-3)Gal(b1-4)]GlcNAc
In short: as §1

[11] = target: Neu5Ac(a2-3)Gal(b1-3)[Neu5Ac(a2-6)]GalNAc
In short: as §1

Neu5Ac(a2-3)Gal(b1-4)Glc = target: Neu5Ac(a2-3)Gal(b1-4)Glc
In short: as §1

[12] = target: Neu5Ac(a2-3)Gal(b1-4)GlcNAc
In short: as §1

[13] = target: Neu5Ac(a2-3)Gal(b1-4)GlcNAc(b1-2)Man(a1-3)[GlcNAc(b1-2)Man(b1-4)GlcNAc(b1-2)Man(a1-6)]Man(b1-4)GlcNAc(b1-4)GlcNAc
In short: as §1

[14] = target: Neu5Ac(a2-3)Gal(b1-4)GlcNAc(b1-2)Man(a1-3)[Neu5Ac(a2-6)Gal(b1-4)GlcNAc(b1-2)Man(a1-6)]Man(b1-4)GlcNAc(b1-4)GlcNAc
In short: as §1

[15] = target: Neu5Ac(a2-3)Gal(b1-4)GlcNAc(b1-3)Gal
In short: as §1

[16] = target: Neu5Ac(a2-3)Gal(b1-4)GlcNAc(b1-3)Gal(b1-3)GlcNAc
In short: as §1

[17] = target: Neu5Ac(a2-3)Gal(b1-4)GlcNAc(b1-3)Gal(b1-4)GlcNAc
In short: as §1

[18] = target: Neu5Ac(a2-3)Gal(b1-4)GlcNAc(b1-3)Gal(b1-4)GlcNAc(b1-3)Gal(b1-4)GlcNAc
In short: as §1

[19] = target: Neu5Ac(a2-3)Gal(b1-4)GlcNAc(b1-3)Gal(b1-4)[Fuc(a1-3)]GlcNAc
In short: as §1

[20] = target: Neu5Ac(a2-3)Gal(b1-4)GlcNAc(b1-3)GalNAc
In short: as §1

[21] = target: Neu5Ac(a2-3)Gal(b1-4)GlcNAc(b1-6)[Gal(b1-3)]GalNAc
In short: as §1

[22] = target: Neu5Ac(a2-3)Gal(b1-4)GlcNAc(b1-6)[Neu5Ac(a2-3)Gal(b1-3)]GalNAc
In short: as §1

[23] = target: Neu5Ac(a2-3)Gal(b1-4)GlcNAc6S
In short: as §1

[24] = target: Neu5Ac(a2-3)Gal(b1-4)[Fuc(a1-3)]GlcNAc
In short: as §1

[25] = target: Neu5Ac(a2-3)Gal(b1-4)[Fuc(a1-3)]GlcNAc(b1-3)Gal
In short: as §1

[26] = target: Neu5Ac(a2-3)Gal(b1-4)[Fuc(a1-3)]GlcNAc(b1-3)Gal(b1-4)GlcNAc
In short: as §1

[27] = target: Neu5Ac(a2-3)Gal(b1-4)[Fuc(a1-3)]GlcNAc(b1-3)Gal(b1-4)[Fuc(a1-3)]GlcNAc(b1-3)Gal(b1-4)[Fuc(a1-3)]GlcNAc
In short: as §1

[28] = target: Neu5Ac(a2-3)Gal(b1-4)[Fuc(a1-3)]GlcNAc(b1-3)GalNAc
In short: as §1

[29] = target: Neu5Ac(a2-3)Gal(b1-4)[Fuc(a1-3)]GlcNAc(b1-6)[Gal(b1-3)]GalNAc
In short: as §1

[30] = target: Neu5Ac(a2-3)Gal(b1-4)[Fuc(a1-3)]GlcNAc6S
In short: as §1

[31] = target: Neu5Ac(a2-3)Gal6S(b1-4)GlcNAc
In short: as §1

[32] = target: Neu5Ac(a2-3)Gal6S(b1-4)[Fuc(a1-3)]GlcNAc
In short: as §1

Neu5Ac(a2-3)GalNAc = target: Neu5Ac(a2-3)GalNAc
In short: as §1

[33] = target: Neu5Ac(a2-3)GalNAc(b1-4)GlcNAc
In short: as §1

[34] = target: Neu5Ac(a2-3)[GalNAc(b1-4)]Gal(b1-4)Glc
In short: as §1

[35] = target: Neu5Ac(a2-3)[GalNAc(b1-4)]Gal(b1-4)GlcNAc
In short: as §1

[36] = target: Neu5Ac(a2-3)[GalNAc(b1-4)]Gal(b1-4)GlcNAc(b1-3)GalNAc
In short: as §1

[37] = target: Neu5Ac(a2-3)[Neu5Ac(a2-6)]GalNAc
In short: as §1

Neu5Ac(a2-6)Gal = target: Neu5Ac(a2-6)Gal
In short: as §1

[38] = target: Neu5Ac(a2-6)Gal(b1-3)GlcNAc(b1-3)[Gal(b1-4)GlcNAc(b1-6)]Gal(b1-4)Glc
In short: as §1

Neu5Ac(a2-6)Gal(b1-4)Glc = target: Neu5Ac(a2-6)Gal(b1-4)Glc
In short: as §1

[39] = target: Neu5Ac(a2-6)Gal(b1-4)GlcNAc
In short: as §1

[40] = target: Neu5Ac(a2-6)Gal(b1-4)GlcNAc(b1-2)Man(a1-3)Man(b1-4)GlcNAc(b1-4)GlcNAc
In short: as §1

[41] = target: Neu5Ac(a2-6)Gal(b1-4)GlcNAc(b1-2)Man(a1-3)[Gal(b1-4)GlcNAc(b1-2)Man(a1-6)]Man(b1-4)GlcNAc(b1-4)GlcNAc
In short: as §1

B1: CVN (Nostoc ellipsosporum), P81180 (protein)
chain: LGKFSQTCYNSAIQGSVLTSTCERTNGGYNTSSIDLNSVIENVDGSLKWQPSNFIETCRNTQLAGSSELAAECKTRAQQFVSTKINLDDHIANIDGTLKYE
For B1, the “glycan array binding signal (z-score)” value [1] was -0.262, the “glycan array binding signal (z-score)” value [2] was -0.308 and the “glycan array binding signal (z-score)” value [3] was -0.195. The “glycan array binding signal (z-score)” value [4] was -0.295, the “glycan array binding signal (z-score)” value [5] was -0.269 and the “glycan array binding signal (z-score)” value [6] was -0.304. The “glycan array binding signal (z-score)” value [7] was -0.304, the “glycan array binding signal (z-score)” value [8] was 0.775 and the “glycan array binding signal (z-score)” value [9] was 0.614. For the same binder, the “glycan array binding signal (z-score)” value [10] was -0.308, the “glycan array binding signal (z-score)” value [11] was 0.563 and the “glycan array binding signal (z-score)” value (Neu5Ac(a2-3)Gal(b1-4)Glc) was -0.299. For the same binder, the “glycan array binding signal (z-score)” value [12] was -0.306, the “glycan array binding signal (z-score)” value [13] was -0.305 and the “glycan array binding signal (z-score)” value [14] was -0.305. The “glycan array binding signal (z-score)” value [15] was 0.197, the “glycan array binding signal (z-score)” value [16] was -0.307 and the “glycan array binding signal (z-score)” value [17] was -0.3. For the same binder, the “glycan array binding signal (z-score)” value [18] was -0.296, the “glycan array binding signal (z-score)” value [19] was -0.297 and the “glycan array binding signal (z-score)” value [20] was -0.285. For the same binder, the “glycan array binding signal (z-score)” value [21] was -0.306, the “glycan array binding signal (z-score)” value [22] was -0.294 and the “glycan array binding signal (z-score)” value [23] was -0.309. For the same binder, the “glycan array binding signal (z-score)” value [24] was -0.268, the “glycan array binding signal (z-score)” value [25] was -0.307 and the “glycan array binding signal (z-score)” value [26] was -0.084. The “glycan array binding signal (z-score)” value [27] was 0.496, the “glycan array binding signal (z-score)” value [28] was 0.185 and the “glycan array binding signal (z-score)” value [29] was -0.179. For the same binder, the “glycan array binding signal (z-score)” value [30] was -0.3, the “glycan array binding signal (z-score)” value [31] was -0.308 and the “glycan array binding signal (z-score)” value [32] was -0.307. The “glycan array binding signal (z-score)” value (Neu5Ac(a2-3)GalNAc) was -0.303, the “glycan array binding signal (z-score)” value [33] was -0.306 and the “glycan array binding signal (z-score)” value [34] was -0.305. For the same binder, the “glycan array binding signal (z-score)” value [35] was -0.283, the “glycan array binding signal (z-score)” value [36] was -0.195 and the “glycan array binding signal (z-score)” value [37] was -0.185. The “glycan array binding signal (z-score)” value (Neu5Ac(a2-6)Gal) was -0.303, the “glycan array binding signal (z-score)” value [38] was 0.59 and the “glycan array binding signal (z-score)” value (Neu5Ac(a2-6)Gal(b1-4)Glc) was -0.301. The “glycan array binding signal (z-score)” value [39] was -0.299, the “glycan array binding signal (z-score)” value [40] was -0.293 and the “glycan array binding signal (z-score)” value [41] was -0.308.
